# From paper PMC12136788
# The other results are listed elsewhere or left out.
# T1: UNK ZnF1-6 (called full-length) (human, UniProt Q9C0B0 30-357)
# T1 sequence: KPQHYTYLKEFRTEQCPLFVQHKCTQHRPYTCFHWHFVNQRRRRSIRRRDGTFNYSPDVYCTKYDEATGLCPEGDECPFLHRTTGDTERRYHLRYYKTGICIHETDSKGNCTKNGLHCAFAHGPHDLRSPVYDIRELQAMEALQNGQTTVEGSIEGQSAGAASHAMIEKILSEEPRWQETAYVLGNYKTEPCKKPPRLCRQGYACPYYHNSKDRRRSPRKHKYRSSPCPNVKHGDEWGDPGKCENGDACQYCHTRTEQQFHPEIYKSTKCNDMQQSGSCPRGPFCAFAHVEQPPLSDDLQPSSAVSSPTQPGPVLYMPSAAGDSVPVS
# B1: chr6:144094883:144095236:-|three_prime_utr|ENSG00000169976|control|control|control (ssRNA)
# RNA: GGGAGUUCUACAGUCCGACGAUCUCCGCGUACAGAAGUGCUUGCCCGGGGAGUCCCGCCUGACCUGCCUUCAUGUGGACCCUUAGAACAGCACUGGGAGACCAGCAGGACUCCUGAGAACUGUGCUGGUGGAGAGGUCCUAGACAACAGAGGAUUGAGCAUCA
# B2: chr16:74623592:74623693:-|3pUTR|ENSG00000168411|msi1|FALSE|unique (ssRNA)
# RNA: GGGAGUUCUACAGUCCGACGAUCCCAUUAUUGUAUGUUGGAAAUUCUUAUUUUCUUUAUUUUCUGUGUGACUUUCUGGACCUUAGAGAGUGUCCUCUCAUCAUCUAGGAUGUGAGUGGGCAUCAAGCAUUUUCUGGGGAAUAUCAACAGAGGAUUGAGCAUCA
# B3: chr16:366968:367674:-|three_prime_utr|ENSG00000086504|control|control|control (ssRNA)
# RNA: GGGAGUUCUACAGUCCGACGAUCGACUCACUACAACCUCCACCUCCAGAGUUCAAGUGAUUGUCCUGUCUCAGCCUCCUGAGUAGCUGGGAUUACAGGCACCCCGCUAUCAUGUAUGGCUAAUUGUAUUUUAGUAGAGAAGGGCAACAGAGGAUUGAGCAUCA
# B4: chr16:46956602:46956663:-|3pUTR|ENSG00000069345|msi1_unk|FALSE|overlapping (ssRNA)
# RNA: GGGAGUUCUACAGUCCGACGAUCGUUUGUACAAUUUGUCCUGAAGCUUUGUGUUUGGCUGCACCUGCAUAAGCUGCUACAAAUAGAAUAAAGAAUUUCAUAGCCUGUAUCUAUCAUUUAGAUGCAUGGAAAAAAAUGGGCUUUCAACAGAGGAUUGAGCAUCA
# B5: chr1:205715917:205716022:-|3pUTR|ENSG00000069275|msi1_unk|total|mutant (ssRNA)
# RNA: GGGAGUUCUACAGUCCGACGAUCGAGACAGGCUCUGAAUAACCUUUGUUUUCUCCACUUUUUAUUGAUGAUUUAAAACACUCCCGUCUUCCCCUCAAAUCAUGCAUGCAAACCGGAGGACAGUGGUGGUGACUCAACUGGAUACAACAGAGGAUUGAGCAUCA
# B6: chr15:71825291:71825392:-|3pUTR|ENSG00000066933|unk|total|mutant (ssRNA)
# RNA: GGGAGUUCUACAGUCCGACGAUCUGAAGCUAUUUUUGUUAAUAUUCUGGUUACUGAAGUUUAUUGUAAAUAUGUAUGUACCGCCGGCAUAUUUCUUUUUAACCUUGUGCUUCCCUCCUUCCCAUGGAAUUUCUUCCCACAGAUCAACAGAGGAUUGAGCAUCA
# B7: chr1:25360731:25360844:+|3pUTR|ENSG00000183726|unk|total|mutant (ssRNA)
# RNA: GGGAGUUCUACAGUCCGACGAUCUUUUUUACUGCUCACUCCCAACCUUUUGUAAUGCCAUUUUCUAAACUUAUUUCUGAGUGCCGUCUCAGCUUAAAGUUGUGUAAUACUAAAAUCACGAGAACACCUAAACAACAACCAAAACAACAGAGGAUUGAGCAUCA
# B8: chr11:130144177:130144243:+|3pUTR|ENSG00000084234|msi1_unk|FALSE|overlapping (ssRNA)
# RNA: GGGAGUUCUACAGUCCGACGAUCAUGAGGGUGUCCGCUGCUGCUUUCCUUCGGAAUCCAGUGCUUCCACAGAGAUUAGCCUGUAGCUUAUAUUUGACAUUCUUCACUGUCUGUUGUUUACCUACCGUAGCUUUUUACCGUUCACAACAGAGGAUUGAGCAUCA
# B9: chr1:110947961:110948399:-|CDS|ENSG00000121931|control|control|control (ssRNA)
# RNA: GGGAGUUCUACAGUCCGACGAUCAAGUCAUUUCUUCAAUAAAAAUUAUACCGAAGAUAUUUUCCCAGUGACACCACCGGAGUUAGAAGAAACCAUUCGAGAUGAAAAAAUAAGAAGACUUAAGCAGGUGCUGAGAGAGAAAGACAACAGAGGAUUGAGCAUCA
# B10: chr4:76160418:76160736:-|3pUTR|ENSG00000138760|msi1|total|mutant (ssRNA)
# RNA: GGGAGUUCUACAGUCCGACGAUCAGUUCCUUCCUCAGUUUCAGUUCUUUCCAGUGUUUUGCCGCUCACUGUCACUCACUGAACCGAGAAACGUGUGCCCUAUACUUCCUGUGACAAUCAUUUUGCUGACAGAAUGAUGGAUGUCAACAGAGGAUUGAGCAUCA
# B11: chr14:22920524:22921056:-|three_prime_utr|ENSG00000100462|control|control|control (ssRNA)
# RNA: GGGAGUUCUACAGUCCGACGAUCCAGCACCAGUCUGUUCUGCUAUUCAUAACCCCACAGGCCGCUCAUAUACCAUUGGCCUCUAGCCCUGCGUGCCAAGUGUCCAGAGCCUUGGAAGCAGCUUCAGGUUCUGCUCCUGUAGUACAACAGAGGAUUGAGCAUCA
# B12: chr9:35750248:35750349:+|CDS|ENSG00000107185|msi1|total|mutant (ssRNA)
# RNA: GGGAGUUCUACAGUCCGACGAUCGGCCCUGGCCUGGGCCAGUGCCCAAAUCCACUGCCAGUUCCAUGCCAGUGAGAGUCGAGCCGCACUGCCUCCUCCUGACUCCCGUCAGCCAGAUGUCCAGCCCGACAGCCAGACUGUCUUCAACAGAGGAUUGAGCAUCA
# B13: chr2:9584341:9584442:-|3pUTR|ENSG00000134308|msi1_unk|total|mutant (ssRNA)
# RNA: GGGAGUUCUACAGUCCGACGAUCUUUCCAUGCAGAUUUGUGCACAUGUGAGAGGGUGUCCAGUUUGUCCCGUGAUUGUUAUUCCGAGAGUUGGACCACUAUUGUGUGUUGCUAAUCAUUGACUGCCGUCCCAAAAAAGCCUUGCAACAGAGGAUUGAGCAUCA
# B14: chr11:78173774:78174554:-|CDS|ENSG00000188997|control|control|control (ssRNA)
# RNA: GGGAGUUCUACAGUCCGACGAUCCGGGGGGAAGCUCUAUACAACCUCACUGGCGACCCUGACCAGCUUCCCUGACUCCAUGCUAGGCGCCAUGUUCAGCGGGAAGAUGCCCACCAAGAGGGACAGCCAGGGCAACUGCUUCAUCAACAGAGGAUUGAGCAUCA
# B15: chr14:100883672:100883793:-|CDS|ENSG00000254656|unk|total|mutant (ssRNA)
# RNA: GGGAGUUCUACAGUCCGACGAUCUCUAUUCCGGGUCCCUCAGCCGGAUUCCCCCGACAGUCUGAUUGUGCUCAUCCUGCAAACCGAAGAGAAGCUGGCAGAGAGAAGAGCUAUGCUCAGGCUGCCCCCCGAGGCCCGCCCCCGCAACAGAGGAUUGAGCAUCA
# B16: ENSG00000070961:be:win_4101|3pUTR|ENSG00000070961|bound_else_gene|NA|bound_elsewhere_windowed (ssRNA)
# RNA: GGGAGUUCUACAGUCCGACGAUCUACAGAUCUGUUUACAAGGUUUGUAGAUACUUUUUUUGUUCCUGUUCAUAGAUGGGAAGCUUCCUUAUAACUGAUGCAGAGAAAAAUUAGUCCUUCAAAUACUGCUGUAUUUUCAGGAAACAACAGAGGAUUGAGCAUCA
# B17: chr2:210678210:210678332:+|3pUTR|ENSG00000021826|unk|total|mutant (ssRNA)
# RNA: GGGAGUUCUACAGUCCGACGAUCUUCAUCCAUUUACUAAUACUGUAUUUUUGGUGGACCCGGCUUGCCUAUGUGCUUAUGUGCCGCUUUUUACUUUUUAUGGUGCUGAUUAAUGGUGAUCAAGGCCGGAAAAGUUGCUGUUCUCAACAGAGGAUUGAGCAUCA
# B18: chr9:116187394:116187495:+|CDS|ENSG00000182752|msi1|total|mutant (ssRNA)
# RNA: GGGAGUUCUACAGUCCGACGAUCUGGGGAACAAGUGGGUGGCAUAUUCAGCCCACUGACCCAGAAGUGCAAAGUGCUCAUGUCCGGGGGCAGUGCCCUGAAUCACAACUACCGGGGCUACAUCGAGCACUUCAGUCUGUGGAACAACAGAGGAUUGAGCAUCA
# B19: ENSG00000070961:be:win_2401|CDS|ENSG00000070961|bound_else_gene|NA|bound_elsewhere_windowed (ssRNA)
# RNA: GGGAGUUCUACAGUCCGACGAUCGAUGGCCCAGCACUAAAGAAAGCAGAUGUUGGAUUUGCAAUGGGUAUUGCUGGAACUGAUGUAGCUAAAGAAGCAUCCGAUAUUAUUCUCACAGAUGACAACUUUACAAGCAUUGUUAAACAACAGAGGAUUGAGCAUCA
# B20: chr1:169124931:169125019:+|5pUTR_CDS|ENSG00000143153|msi1_unk|FALSE|overlapping (ssRNA)
# RNA: GGGAGUUCUACAGUCCGACGAUCGAAAUUUCCUUUCGUCCUAAUGAUCCCAAGAGCUAUGAGGCAUAUGUACUGAACAUAGUUAGGUUCCUGGAAAAGUACAAAGAUUCAGCCCAGAGGGAUGACAUGAUUUUUGAAGAUUGUCAACAGAGGAUUGAGCAUCA
# B21: ENSG00000198589:be:win_1751|CDS|ENSG00000198589|bound_else_gene|NA|bound_elsewhere_windowed (ssRNA)
# RNA: GGGAGUUCUACAGUCCGACGAUCCCAAGGUUCAACUGAUGCUCUAUACUUAUCUGUCCACGGAAUUCAUUGGUACAGUCAACAUAUAUAACACCAUUCGGAGAGUUGGAACAGUGCUUCUCAUCAUGCACACGCUGAAGUACUCAACAGAGGAUUGAGCAUCA
# B22: chr20:56370492:56370607:-|CDS|ENSG00000087586|unk|total|mutant (ssRNA)
# RNA: GGGAGUUCUACAGUCCGACGAUCUCGGAUGCAUGAUGAGAAGGUGGAUCUCUGGAGCCUUGGAGUUCUUUGCUAUGAAUUUUCCGUUGGGAAGCCUCCUUUUGAGGCAAACACAUACCAAGAGACCUACAAAAGAAUAUCACGCAACAGAGGAUUGAGCAUCA
# Molecular target: T1, UNK ZnF1-6 (called full-length)
# Experiment: nsRBNS (natural sequence RNA bind-n-seq); RBNS binding buffer (assumed for nsRBNS): 25 mM Tris pH 7.5, 150 mM KCl, 3 mM MgCl2, 0.01% Triton X-100, 500 ug/ml BSA, 20 U/ml SUPERase-In, 4 C; UNK is unkempt and MSI1 is Musashi-1; names of the RNAs are library labels; protein concentration not given here; high values mean tight binding
row,Binder,binding signal
1,B1,0.735 enrichment R
2,B2,0.572 enrichment R
3,B3,0.897 enrichment R
4,B4,1.25 enrichment R
5,B5,0.724 enrichment R
6,B6,0.473 enrichment R
7,B7,0.572 enrichment R
8,B8,1.56 enrichment R
9,B9,0.797 enrichment R
10,B10,0.368 enrichment R
11,B11,0.677 enrichment R
12,B12,0.76 enrichment R
13,B13,0.533 enrichment R
14,B14,0.754 enrichment R
15,B15,0.755 enrichment R
16,B16,0.517 enrichment R
17,B17,0.353 enrichment R
18,B18,0.573 enrichment R
19,B19,0.531 enrichment R
20,B20,0.437 enrichment R
21,B21,0.372 enrichment R
22,B22,0.443 enrichment R
